The campaign covered roughly 310,000 compounds. About 14,000 (4.5%) showed an effect of 50% or more. The effect is printed as a negative number. The list shows a part of the results.
Molecular target: human ether-à-go-go-related gene (hERG) potassium channel (human, UniProt Q12809)
Experiment: primary screen, population patch clamp on CHO cells stably expressing hERG
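Also: peak tail current of the secondary pulse compared with the same well before compound.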

human ether-à-go-go-related gene (hERG) potassium channel, sequence (Q12809 whole entry, looked up): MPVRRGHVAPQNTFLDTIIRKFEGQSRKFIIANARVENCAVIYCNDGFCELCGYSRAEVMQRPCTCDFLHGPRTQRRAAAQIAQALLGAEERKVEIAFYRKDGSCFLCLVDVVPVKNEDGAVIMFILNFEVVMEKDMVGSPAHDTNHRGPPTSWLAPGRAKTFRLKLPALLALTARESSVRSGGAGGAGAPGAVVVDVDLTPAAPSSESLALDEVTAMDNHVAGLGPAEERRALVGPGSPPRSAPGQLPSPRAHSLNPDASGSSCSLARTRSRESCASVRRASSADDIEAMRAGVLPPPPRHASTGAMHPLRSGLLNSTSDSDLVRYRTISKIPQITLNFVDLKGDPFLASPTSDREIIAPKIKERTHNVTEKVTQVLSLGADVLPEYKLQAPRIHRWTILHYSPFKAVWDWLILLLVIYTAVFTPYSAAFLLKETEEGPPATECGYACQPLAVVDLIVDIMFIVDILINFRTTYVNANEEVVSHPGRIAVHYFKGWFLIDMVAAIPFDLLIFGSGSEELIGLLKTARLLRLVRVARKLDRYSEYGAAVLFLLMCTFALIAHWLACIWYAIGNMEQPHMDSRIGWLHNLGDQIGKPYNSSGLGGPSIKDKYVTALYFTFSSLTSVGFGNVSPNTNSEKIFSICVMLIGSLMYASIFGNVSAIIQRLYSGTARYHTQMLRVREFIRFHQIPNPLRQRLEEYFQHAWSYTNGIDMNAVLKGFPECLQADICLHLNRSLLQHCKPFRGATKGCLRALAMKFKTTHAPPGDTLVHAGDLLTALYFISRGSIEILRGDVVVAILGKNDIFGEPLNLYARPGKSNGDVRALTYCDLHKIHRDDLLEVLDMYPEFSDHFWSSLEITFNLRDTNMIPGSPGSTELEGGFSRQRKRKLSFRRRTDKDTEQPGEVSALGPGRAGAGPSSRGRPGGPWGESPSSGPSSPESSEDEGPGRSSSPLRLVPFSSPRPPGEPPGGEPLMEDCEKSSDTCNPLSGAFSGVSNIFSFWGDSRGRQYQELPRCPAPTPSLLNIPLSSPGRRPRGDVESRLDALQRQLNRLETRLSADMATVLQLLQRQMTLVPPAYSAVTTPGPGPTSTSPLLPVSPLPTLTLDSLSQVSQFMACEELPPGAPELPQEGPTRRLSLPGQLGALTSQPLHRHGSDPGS

| Structure (SMILES) | hERG current change (%, negative = inhibition) at 10uM [%] |
| --- | --- |
| CCc1cc2c(N[C@@H](Cc3ccccc3)C(=O)O)ncnc2s1 | 20.1 |
| Clc1cc(/C=N\NC2=NCCN2)cc(Cl)n1 | -20 |
| Cc1ccc(OCC(=O)NN2C(=O)c3ccccc3C2=O)cc1 | -16.9 |
| Cc1ccc(Cn2ncc(C)c2N)o1 | 16.3 |
| Nn1c(SCC(=O)N2CCCCC2)nnc1-c1ccncc1 | 14.6 |
| CCOC(=O)c1c(C)c(C(=O)NCCOC)c(C)n1CC | -4.8 |
| COc1ccc(S(=O)(=O)N2c3ccccc3NC(=O)CC2C)cc1 (stereo not shown) | 9.7 |
| O=C(CCN1c2ccccc2Sc2ccccc21)OCc1nnc(-c2ccccc2)o1 | 5.92 |
| CCN(CC)CCNC(=O)c1cn(CC)c2ccc(S(=O)(=O)N3CCOCC3)cc2c1=O | 14.6 |
| CCOc1cc(NC(=S)NCCCN2CCOCC2)c(OCC)cc1NC(=O)c1cccc(F)c1 | -1.87 |
| CCOc1ccccc1-n1c(SCC(N)=O)nc2ccccc2c1=O | 0.156 |
| COc1cc(NC(=O)c2cccnc2)ccc1NC(=O)c1ccccc1Cl | 3.64 |
| CC1=Nn2c(nnc2-c2ccccn2)SC1 | -5.5 |
| O=C1C2C(C(=O)N1/N=C/c1cc([N+](=O)[O-])c(O)cc1O)C1C=CC2C12CC2 (stereo not shown) | -17.7 |
| Cc1ccc(S(=O)(=O)N2CCN(S(=O)(=O)c3ccc(C)cc3)C2)cc1 | -24.9 |
| CCOC(=O)C(=NC(C)(C)C)NNc1cc(Cl)ccc1Cl | 5.53 |
| COc1ccc(Cc2nnc(NC(=O)C3CC(=O)N(c4ccccc4C)C3)s2)cc1OC (stereo not shown) | 11.2 |
| O=C(COc1ccc(S(=O)(=O)N2CCOCC2)cc1)NC1CCCC1 | -10.1 |
| O=C1CSC(c2ccccc2)N1c1ccccc1F (stereo not shown) | 10.7 |
| O=C(O)c1cc(S(=O)(=O)Nc2ccc3cn[nH]c3c2)ccc1O | -1.79 |

| Structure (SMILES) | hERG current change (%, negative = inhibition) at 10uM [%] |
| --- | --- |
| COC/C=C/C1=CC2=CC(=O)C(C)(OC(=O)CCC(=O)OC)C(=O)C2=CO1 (stereo not shown) | 1.38 |
| CCCNC(=O)c1c(N)n(Cc2ccco2)c2nc3ccccc3nc12 | 1.34 |
| O=C(CSc1nnc(CNC(=O)c2c(F)cccc2F)o1)NCc1ccco1 | 9.67 |
| CC(C)CNC(=O)c1cccc(Cn2cc(Cl)cn2)c1 | 4.12 |
| CCc1cc(SC#N)ccc1N | 12.9 |
| COc1ccc(C(CNC(=O)CN2C(=O)NC3(CCCC3)C2=O)N(C)C)cc1 (stereo not shown) | 15.6 |
| COC(=O)CSCC(=O)Nc1nnc(-c2cccc(C)c2)s1 | 13.7 |
| Cc1sc2ccccc2[n+]1CC(=O)O.[Br-] | 9.88 |
| Cc1ccnc(NC(=O)CNC(=O)c2ccco2)c1 | 8.46 |
| O=C(CN(Cc1ccc(F)cc1)S(=O)(=O)c1ccc(S(=O)(=O)N2CCOCC2)cc1)Nc1ccccc1 | 3.83 |
| O=C(Nc1cccc(C(F)(F)F)c1)c1cccnc1 | -21.3 |
| Cc1cc(N2C(=O)C3C4C=CC(C4)C3C2=O)no1 (stereo not shown) | 14.7 |
| CCOc1ccc(C(=O)Nc2cc(Cl)ccc2-n2cncn2)cc1OC | -5.4 |
| Cc1ccc(S(=O)(=O)N(C)C)cc1NC(=O)CN1C(=O)NC(Cc2ccccc2)C1=O (stereo not shown) | 8.61 |
| CCCOc1ccc(NC(=O)C2CC(=O)N(C)C(=Nc3cccc(OC)c3)S2)cc1 (stereo not shown) | 8.39 |
| CCOC(=O)N1CCC(=C(C#N)C(=O)Nc2cc(OC)ccc2OC)CC1 | 19.8 |
| COC(=O)c1cccc(NC(=O)c2cnccn2)c1 | 17.2 |
| COc1ccc(OC)c(/C=c2\sc3nc(-c4cccs4)nn3c2=O)c1 | 1.04 |
| COc1ccccc1-c1nc2cc(Cl)ccc2c(=O)n1O | 24.8 |
| COc1ccc2c(c1)O[C@@H](c1cccc(C(F)(F)F)c1)[C@H](OC(=O)N[C@H]1CCCc3ccccc31)C2=O | -13.6 |

| Structure (SMILES) | hERG current change (%, negative = inhibition) at 10uM [%] |
| --- | --- |
| CS(=O)(=O)O.O=C(O)c1ccc2c(c1)c1c3n2CCNC3CCC1 (stereo not shown) | 20.7 |
| COC(=O)Cn1c(=O)oc2ccc(C)cc21 | -3.99 |
| Cc1ccc(C(=O)NN2C(=O)C3C4C=CC([C@@H]3C2=O)C42CC2)cc1 (stereo partly shown) | 18.6 |
| Cc1ccc(NC(=O)Cc2c(C(=O)O)n(C)c3ccccc23)cc1F | 30.3 |
| COc1cccc(/C=C/C(=O)NCc2ccc(S(N)(=O)=O)cc2)c1 | -4.13 |
| O=C(Nc1ccc(N2CCCC2)cc1)c1ccccc1F | 16.6 |
| COC(=O)c1c(C(=O)OC)c(-c2ccc(F)cc2)n2c1CSC2 | -2.55 |
| O=c1oc2ccc3ccccc3c2cc1-c1nnc(-c2cccs2)o1 | -1.73 |
| Cc1ccc(CN2CCN(C/C=C/c3ccc(F)cc3)CC2CCO)o1 (stereo not shown) | -54.5 |
| CCOc1ccc(-n2cnc3sc4c(c3c2=O)CCCC4)cc1 | 0.253 |
| COc1ccc2cc3c(N)nn(C(=O)Cc4c[nH]c5ccccc45)c3nc2c1 | 18.1 |
| CCN1CCC(NC(=O)Nc2cc(Cl)ccc2OC)CC1 | -2.83 |
| COc1ccc([C@H]2CC(=O)C=C(c3ccc(OC)c(F)c3)C2)cc1 | 14 |
| CCN(CC)C(=O)C1CCCN(Cc2ccc3ccccc3c2)C1 (stereo not shown) | -19 |
| COc1ccc(C2=NCCc3cc(OC)c(OC)cc32)cc1 | -35.1 |
| CCOc1nc(Nc2ccc(OC)c(Cl)c2)nc(N2CCN(c3ccc(OC)cc3)CC2)n1 | 14.9 |
| Cc1ccc(C(=O)NCCNC(=O)CN2CCCC2)cc1 | 5.16 |
| CCCCOc1ccc(C(=O)NCC(=O)N2CCN(Cc3ccc4c(c3)OCO4)CC2)cc1 | -42.4 |

Source: PMC4336329 (PLoS ONE, 2015)
